The values that follow come from the supplement of paper PMC3334620.

The full ranking holds about 33,000 sequences; the median of “E-score (-0.5 to 0.5)” is about -0.043, and the highest 2% start at about 0.37. The list shows a part of the results.

In the assay the target is T1, Upc2 (UniProt Q12151).
T1 sequence: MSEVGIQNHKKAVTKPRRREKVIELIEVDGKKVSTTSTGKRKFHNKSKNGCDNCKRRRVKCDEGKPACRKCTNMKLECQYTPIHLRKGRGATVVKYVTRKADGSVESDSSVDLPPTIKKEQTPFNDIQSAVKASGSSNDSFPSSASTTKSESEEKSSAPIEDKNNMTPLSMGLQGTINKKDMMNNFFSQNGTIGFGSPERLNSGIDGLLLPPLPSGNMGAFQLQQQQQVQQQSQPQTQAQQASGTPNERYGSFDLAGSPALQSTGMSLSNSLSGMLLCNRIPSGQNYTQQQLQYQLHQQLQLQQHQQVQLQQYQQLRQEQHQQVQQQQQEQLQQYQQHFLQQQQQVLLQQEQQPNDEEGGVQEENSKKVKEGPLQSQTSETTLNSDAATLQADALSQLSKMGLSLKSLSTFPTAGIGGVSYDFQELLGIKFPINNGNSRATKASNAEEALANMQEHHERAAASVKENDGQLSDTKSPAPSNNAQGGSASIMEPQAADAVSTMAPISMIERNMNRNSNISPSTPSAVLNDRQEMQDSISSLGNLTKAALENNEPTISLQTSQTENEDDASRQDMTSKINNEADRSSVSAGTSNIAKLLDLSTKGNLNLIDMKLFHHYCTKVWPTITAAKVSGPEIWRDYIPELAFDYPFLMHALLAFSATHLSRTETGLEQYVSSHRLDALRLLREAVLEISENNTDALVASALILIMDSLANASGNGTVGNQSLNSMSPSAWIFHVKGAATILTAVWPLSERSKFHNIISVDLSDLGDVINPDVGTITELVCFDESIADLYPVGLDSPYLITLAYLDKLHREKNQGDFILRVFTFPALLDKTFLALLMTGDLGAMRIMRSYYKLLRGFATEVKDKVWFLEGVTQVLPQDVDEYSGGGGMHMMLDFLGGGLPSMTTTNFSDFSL
The experiment in a line: PBM E-score (8-mer binding enrichment) (E-score (-0.5 to 0.5)); higher = stronger / more preferred TF binding; most listed sequences are background and not binding sites. The settings on record: protein concentration: 200 nM; construct: GST-full length. In short, it runs like this:
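Yeast transcription factors carrying a GST tag, as full-length proteins or DNA-binding domains, were produced by PURExpress in vitro transcription/translation. About 100-200 nM protein was applied to universal all-10-mer Agilent arrays, double-stranded by primer extension on fresh or once-stripped slides. Bound protein was detected with fluorescent anti-GST, and scans were normalised with masliner. The Universal PBM Analysis Suite gave each ungapped eight-base word, pooled with its reverse complement, an E-score, a modified Wilcoxon-Mann-Whitney statistic.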
On to AACCCCTT, for which the “PBM E-score” value is -0.16.
As for CTCCAAAA, the “PBM E-score” value was -0.183.
CAAGCACC: the “PBM E-score” value was -0.172.
With CTTACCTA, the “PBM E-score” value was -0.0428.
For the sequence GACTCGAC, the “PBM E-score” value amounted to 0.0265.
GCCGAGAA: the “PBM E-score” value amounted to 0.068.
With AGTTTCTA, the “PBM E-score” value is -0.00903.
For the sequence CTTTCAGC, the “PBM E-score” value is -0.123.
Regarding GGTCTAAC, the “PBM E-score” value was -0.129.
For the sequence ACCACACG, the “PBM E-score” value came to 0.104.
With GCCTGGTA the figure was -0.0182; with CATGGAGG, -0.288.
CTAGCGCC: the “PBM E-score” value is -0.168.
With AACCAACT, the “PBM E-score” value worked out at 0.009.
Turning to GTAGAGAC, the “PBM E-score” value is -0.0871.
Consider AAGTGTGC, for which the “PBM E-score” value was -0.127.
Regarding CACTACCA, the “PBM E-score” value stood at 0.0739.
GCTGTTAC: the “PBM E-score” value is -0.0869.
The same measure for ACGCATCC: 0.207; for CCTTTTGA: 0.0176.
With CAGCGTGG the figure was -0.162; with ATTTGGTC, 0.0639.
Consider ACATAACC, for which the “PBM E-score” value is -0.0515.
On to ATACTGCG, for which the “PBM E-score” value was found to be 0.162.
Consider AGTCACAA, for which the “PBM E-score” value is -0.00025.
Take CATGGTCC: the “PBM E-score” value is -0.175.
For CCCGACAC, the “PBM E-score” value is -0.193.
CAAGTTGG: the “PBM E-score” value is -0.108.
In the case of ATCCCATA, the “PBM E-score” value was -0.123.
Regarding AAGCGCGG, the “PBM E-score” value is -0.151.
As to ATGAGGAA, the “PBM E-score” value is -0.0947.
The same measure for CCAAGCGA: 0.243.
As for CATGCGGC, the “PBM E-score” value was -0.23.
With ATAGCAAA the figure was -0.0399; with GTATGAGA, 0.126.
Regarding GCAAGCCC, the “PBM E-score” value is -0.109.
As for CATCCTGC, the “PBM E-score” value is -0.201.
Consider GCGATTAC, for which the “PBM E-score” value was found to be 0.0838.
Consider GACCGCGA, for which the “PBM E-score” value was determined as 0.0859.
In the case of CCACTCAC, the “PBM E-score” value was -0.0969.
As to CCTTAATA, the “PBM E-score” value is -0.239.
Regarding GATGCATA, the “PBM E-score” value turned out to be 0.0988.
In the case of ACTGGTGA, the “PBM E-score” value is -0.187.
Take CCCCCCCA: the “PBM E-score” value was -0.309.
With CACTCTCC the figure was -0.196; with CAAGATAG, -0.0974; with GGTACAGA, -0.0181.
As for CGGAAAAG, the “PBM E-score” value was found to be 0.113.
With AACCAGCA the figure was -0.249.
In the case of CTAGAGCC, the “PBM E-score” value was -0.322.
Regarding CCACAACC, the “PBM E-score” value was 0.0353.
For the sequence AAGAGAGT, the “PBM E-score” value was -0.0851.
With GCGTGAGA the figure was -0.00735; with ATTTTTGC, 0.0991; with AACCTTTC, -0.0976.
The same measure for ATTGTCGG: 0.0788; for GCGAGACC: 0.0589; for ACTTGTTC: 0.0821.
With GCTGACCA, the “PBM E-score” value is -0.158.
Turning to GAAGAACC, the “PBM E-score” value is 0.0139.
Consider AATGAATT, for which the “PBM E-score” value worked out at 0.00723.
The same measure for AGCACGAG: 0.108.
With GGTATCAA, the “PBM E-score” value was -0.153.
With CGAGAACG, the “PBM E-score” value came out at 0.276.
For the sequence AGGGATCC, the “PBM E-score” value is -0.123.
Regarding ATGTCGCG, the “PBM E-score” value was found to be 0.168.
Consider CCTCCCGC, for which the “PBM E-score” value was -0.133.
On to ACAGGACC, for which the “PBM E-score” value is -0.213.
For CACGCAGA, the “PBM E-score” value was determined as 0.044.
Take TATGGGAA: the “PBM E-score” value was -0.0725.
In the case of AAAAACGA, the “PBM E-score” value turned out to be 0.288.
Regarding ACTACAAC, the “PBM E-score” value was 0.0818.
For TCTCCGCA, the “PBM E-score” value is -0.185.
With CACATGGG, the “PBM E-score” value is -0.351.
With AGCATCCC the figure was -0.316; with AGACCGAT, -0.158.
With GTTGGGGA, the “PBM E-score” value is -0.0796.
As for AGTGGGTA, the “PBM E-score” value was -0.0804.
Turning to CAGGTACC, the “PBM E-score” value was -0.112.
The same measure for AGTCTGCG: -0.195; for GAAGCGTC: -0.0104.
As for GAACGGGC, the “PBM E-score” value amounted to 0.291.
With CCTCCTCG, the “PBM E-score” value turned out to be 0.144.
As for AGACGCCA, the “PBM E-score” value was -0.153.
With GCGATCCA the figure was 0.179; with TACCTTCA, 0.0337.
